Source: PubChem BioAssay AID1159614 (National Center for Advancing Translational Sciences (NCATS), 2016)
Among all 45,000 compounds or so, about 65 (0.1%) were called active. The call rests on the fitted dose curve; in most records, active means well fitted activation curve with a large enough effect; inconclusive means small, poorly fitted or top-dose-only effect; inactive means no such curve, though single readings can be large or run the other way. The list shows a part of the results.

The compounds below were run against Galactocerebrosidase (Homo sapiens) (UniProt P54803) (assay: A Novel Cell-Based Assay to Identify Small Molecules for B -Galactocerebrosidase). Conditions: 145M-Twi-hGALC-G270D cells (Twitcher mouse brain line with human GALC G270D), HMU-beta-Gal fluorescence, 48 h; series mostly up to 57.5 µM; activation: at the top concentration.
How it was run: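 Live 145M-Twi cells (Twitcher mouse brain-derived, GALC-null) stably expressing human GALC-G270D, with a wild-type GALC line, were compound-treated. Residual GALC activity was then read as fluorescence from 0.1 mM final HMU-β-gal at pH 5.2; higher signal means activation.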
Further: 0% is about no effect; nearly all actives have a fitted effect of over 65% in size.

Chain of UniProt P54803 (P54803 whole entry, looked up): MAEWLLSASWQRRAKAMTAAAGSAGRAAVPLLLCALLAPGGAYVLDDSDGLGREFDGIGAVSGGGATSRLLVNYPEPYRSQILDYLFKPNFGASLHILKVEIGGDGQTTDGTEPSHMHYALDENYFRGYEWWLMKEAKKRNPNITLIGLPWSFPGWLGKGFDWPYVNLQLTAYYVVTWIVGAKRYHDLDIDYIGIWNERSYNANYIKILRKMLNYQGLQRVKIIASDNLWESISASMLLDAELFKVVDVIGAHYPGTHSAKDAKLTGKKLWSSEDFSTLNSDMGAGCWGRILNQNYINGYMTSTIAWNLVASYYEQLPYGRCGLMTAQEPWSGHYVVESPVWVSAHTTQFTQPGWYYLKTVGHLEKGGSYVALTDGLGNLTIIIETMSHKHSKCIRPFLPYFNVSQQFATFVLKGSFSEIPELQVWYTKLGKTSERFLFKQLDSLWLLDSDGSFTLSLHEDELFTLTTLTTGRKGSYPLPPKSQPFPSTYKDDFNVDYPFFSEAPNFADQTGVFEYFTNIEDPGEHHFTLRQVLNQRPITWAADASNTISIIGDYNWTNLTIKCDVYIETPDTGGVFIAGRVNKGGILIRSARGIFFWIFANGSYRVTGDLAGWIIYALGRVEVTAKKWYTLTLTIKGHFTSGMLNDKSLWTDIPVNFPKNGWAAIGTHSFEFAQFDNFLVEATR

Row | SMILES | activation
1 | CC1CCN(c2nc3ccccc3nc2SCC(=O)Nc2ccccc2C(C)C)CC1 | inactive: -18.8%
2 | O=C(NC1(C(F)(F)F)N=C(c2ccccc2)N(Cc2ccccc2)C1=O)c1ccc(F)cc1 (stereo unspecified) | inactive: -7.38%
3 | Cc1cc(-c2ccc(C)c(S(=O)(=O)Nc3ccc(C)c(N(C)C)c3)c2)on1 | inactive: -12.7%
4 | CCOc1ccc(CCNC(=O)c2cc3n(n2)CCCN(Cc2ccc(C)cc2)C3=O)cc1OCC | inactive: 0.193%
5 | CCOc1ccc(C(=O)c2cn(CC(=O)Nc3ccc(C)c(Cl)c3)c3ccc(OCC)cc3c2=O)cc1 | inactive: -13.8%
6 | COc1cc(NC(=O)COCc2cc(-c3ccc4c(c3)OCO4)on2)c(OC)cc1Cl | inactive: -15%
7 | O=C(CS(=O)(=O)c1cccc2nsnc12)N1CCN(c2ccc(F)cc2)CC1 | inactive: -12.2%
8 | CC(=O)c1ccc(NC(=O)Cn2c(=O)nc(-c3ccccc3)c3ccccc32)cc1 | inactive: -8.3%
9 | CCCCN(CC)CCCNC(=O)c1ccc2c(c1)N(Cc1ccc(C)cc1)C(=O)c1ccccc1S2 | inactive: -6.27%
10 | CCCCC(=O)OCc1cc(=O)n2nc(C3CC3)sc2n1 | inactive: 2.04%
11 | Cn1cnc(S(=O)(=O)N2CCC(C(=O)Nc3ccc(OC(F)(F)F)cc3)CC2)c1 | inactive: -17.6%
12 | CC1CCN(S(=O)(=O)c2ccc3c(c2)N(CC(=O)N(C)Cc2ccccc2)C(=O)CO3)CC1 | inactive: -12.4%
13 | CCN(CC)c1cc(NC2CCCCC2)c2c3c(onc13)-c1ccccc1C2=O | inactive: -8.22%
14 | O=C(CCCc1nc(-c2ccc(Cl)cc2)no1)NCc1ccco1 | inactive: -9.46%
15 | COc1cc(C2c3c(-c4ccccc4O)n[nH]c3C(=O)N2Cc2ccncc2)cc(OC)c1OC (stereo unspecified) | inactive: -26.5%
16 | CCCCN1C(C(=O)c2ccccc2)=C(OC(=O)CC)c2ccccc2S1(=O)=O | inactive: -11.7%
17 | O=c1c2sc3ccccc3c2n(Cc2cccc(Cl)c2)c(=O)n1Cc1ccc(F)cc1 | inactive: -12.8%
18 | Cc1ccccc1CN1C(=O)C(O)(c2c[nH]c3ccccc23)c2cc(Cl)ccc21 (stereo unspecified) | inactive: -14.6%
19 | COc1cccc(CNC(=O)C2CCCN(c3nn4cc(-c5ccc(C)cc5)nc4s3)C2)c1 (stereo unspecified) | inactive: -10.9%
20 | Cc1cc(C)c(NC(=O)Cn2nnc3sc4c(c3c2=O)CCC(C(C)(C)C)C4)c(C)c1 (stereo unspecified) | inactive: -1.21%
21 | O=C(c1ccc2c(c1)N(Cc1ccccc1)C(=O)c1ccccc1S2(=O)=O)N1CCC(Cc2ccccc2)CC1 | inactive: -6.81%

Row | SMILES | activation
22 | O=C(NCc1ccc(Cl)cc1)c1cc2cccc3c2n1CCS3 | inactive: -4.7%
23 | CC1CCCN(C(=O)c2ccc(CSc3nc4ccncc4n3Cc3ccccc3)cc2)C1 (stereo unspecified) | inactive: -5.4%
24 | CCc1cc(C(=O)N2CCN(c3ccccc3)CC2)no1 | inactive: -17.6%
25 | COc1ccc(CNC(=O)C2CCN(C(=O)N3CCOc4ccc(C)cc43)CC2)cc1 | inactive: 1.09%
26 | COC(=O)c1sccc1S(=O)(=O)N(CC(=O)NCc1ccc(F)cc1)c1ccccc1 | inactive: -8.37%
27 | Cc1cccc(NC(=O)Cn2c(=O)n(Cc3nc(-c4ccccc4)no3)c(=O)c3ccccc32)c1 | inactive: -16.7%
28 | COc1ccccc1N1CCN(c2c3c(nc4nncn24)CCC3)CC1 | inactive: 5.31%
29 | CC(C)(C)NC(=O)Cn1cc(S(=O)(=O)Cc2ccccc2Cl)c2ccccc21 | inactive: -10.3%
30 | Cc1cccc(-n2c(=O)c3c(c4cc(C)ccc4n3C)n(CC(=O)Nc3ccc(C)c(C)c3)c2=O)c1 | inactive: -0.717%
31 | C#CCN(C)CCCOc1ccc(Cl)cc1Cl | inactive: -5.04%
32 | COc1ccc(-c2nc(SCC(=O)NCC3CCCO3)c(-c3ccc(C)cc3)[nH]2)cc1OC (stereo unspecified) | inactive: -17.9%
33 | COc1ccc(C)cc1NS(=O)(=O)c1ccc2c(c1)CCCN2C(C)=O | inactive: -16.9%
34 | O=C(O)CN(CCN(CC(=O)O)CC(=O)O)CCN(CC(=O)O)CC(=O)O | inactive: -10.1% [at 23.8 µM]
35 | Cc1ccc(N(C)S(=O)(=O)c2nnc(NC(=O)c3ccco3)s2)cc1 | inactive: 0.892%
36 | COc1ccc(-c2c(C#N)c(SCC(=O)Nc3ccc(C)c(C)c3)nc(C)c2C(=O)Nc2ccccc2)cc1OC | inactive: -2.47%
37 | COc1ccc(NC(=O)N2CCN(Cc3nc4ccc(C)cc4o3)CC2)cc1OC | inactive: -17.4%
38 | CCCCNC(=O)CN1CCN(c2ccc(NC(=O)c3ccc(OC)cc3)cc2C(=O)O)CC1 | inactive: -0.998%
39 | Cc1nc(-c2ccccc2)sc1-c1ccc(SCC(=O)Nc2ccccc2)nn1 | inactive: -8.3%
40 | Cc1oc(-c2cccc(Br)c2)nc1CN1CCC(C(=O)NCc2ccccc2)CC1 | inactive: -6.48%
41 | Cc1ccc(NC(=O)c2ccc(F)c(S(=O)(=O)NCCc3ccccc3)c2)cc1F | inactive: -16%
42 | COCCn1c(CCC(=O)Nc2ccc(OC)c(OC)c2)nc2cccnc21 | inactive: -11.8%

Row | SMILES | activation
43 | O=C(NCc1ccccc1Cl)c1cc(-c2ccccc2)n[nH]1 | inactive: -14.8%
44 | O=C(Cn1c2ncccc2c(=O)n1-c1ccccc1)NCc1ccccc1 | inactive: -20.1%
45 | O=C(CS(=O)(=O)c1nc(-c2ccc(Cl)cc2)cn1-c1ccccc1)Nc1cccc(Cl)c1 | inactive: -44.4%
46 | Cc1cc(C)cc(NC(=O)CSc2nccn2C2CCCC2)c1 | inactive: -5.2%
47 | COc1cccc(NC(=O)c2csc3c2CCCCC3)c1 | inactive: -8.5%
48 | CCc1ccc(NC(=O)N2CCN(c3nnc(C)c4c(C)n(-c5ccc(Cl)cc5)nc34)CC2)cc1 | inactive: -27.1%
49 | COc1cccc(CNC(=O)Cc2c(C)c3cc4c(C)coc4cc3oc2=O)c1 | inactive: -3.67%
50 | COc1cccc(C2C(C(N)=O)=C(C)Nc3nc(CCCO)nn32)c1 (stereo unspecified) | inactive: -5.05%
51 | CCN1C(=O)c2ccccc2Sc2ccc(NC(=O)Cc3ccc(OC)c(OC)c3)cc21 | inactive: -11.8%
52 | COc1ccc2c(c1)c(=O)c(S(=O)(=O)c1ccc(F)cc1)cn2CC(=O)Nc1ccc(C)cc1C | inactive: -4.24%
53 | CCOc1cccc(CC(=O)NCc2ccc3c(c2)CCN3C(=O)c2cccc(C)c2)c1OCC | inactive: -22.4%
54 | COc1cc(NS(=O)(=O)c2ccc(NC(=O)COc3ccc(Cl)cc3Cl)cc2)nc(OC)n1 | inactive: -11.5%
55 | COc1ccc(CN(C(=O)Nc2cc(C)ccc2C)C2CCN(C(C)=O)CC2)cc1 | inactive: -9.97%
56 | Cc1ccc(CNCc2ccc3c(c2)n(C)c(=O)n3C)cc1 | inactive: -13.9%
57 | O=C(CCNS(=O)(=O)c1ccc(Br)s1)Nc1ccc(Br)cc1 | inactive: -10.9%
58 | c1ccc(Nc2c(-c3ccccc3)nc3ncccn23)cc1 | inactive: -4.16%
59 | CCC(CC)C(=O)N1CCc2cc(OC)c(OC)cc2C1COc1ccc2c(C)cc(=O)oc2c1 (stereo unspecified) | inactive: -16.5%
60 | O=C(c1cc(S(=O)(=O)N2CCCC2)c[nH]1)N1CCN(c2cccc(Cl)c2)CC1 | inactive: 3.46%
61 | CCOc1ccc2nc(N(Cc3cccnc3)C(=O)c3ccco3)sc2c1 | inactive: -10.5%
